We go through 31 molecules from PMC9911399, “Two distinct binding modes provide the RNA-binding protein RbFox with extraordinary sequence specificity”.

Substitutions are numbered along the chain they refer to; changes in the protein carry UniProt numbers. This is one part of the list.

The chains are these.
B1: GUACGAG (DNA:RNA)
RNA: GGGAGACCGGAAUUCAGAUUGUCCGUACGAGUUAAAUCCCGUCGUAGCCACCA
DNA 1: CAATCTGAATTCCGGTCTCCC
DNA 2: TGGTGGCTACGACGGGATT
B2: UAUCCCU (DNA:RNA)
RNA: B1 RNA with G25U, U26A, A27U, G29C, A30C, G31U
DNA 1: CAATCTGAATTCCGGTCTCCC
DNA 2: TGGTGGCTACGACGGGATT
B3: UUGCUAC (DNA:RNA)
RNA: B1 RNA with G25U, A27G, G29U, G31C
DNA 1: CAATCTGAATTCCGGTCTCCC
DNA 2: TGGTGGCTACGACGGGATT
B4: UCGGGCA (DNA:RNA)
RNA: B1 RNA with G25U, U26C, A27G, C28G, A30C, G31A
DNA 1: CAATCTGAATTCCGGTCTCCC
DNA 2: TGGTGGCTACGACGGGATT
B5: CGCCGAA (DNA:RNA)
RNA: B1 RNA with G25C, U26G, A27C, G31A
DNA 1: CAATCTGAATTCCGGTCTCCC
DNA 2: TGGTGGCTACGACGGGATT
B6: GUUCGUA (DNA:RNA)
RNA: B1 RNA with A27U, A30U, G31A
DNA 1: CAATCTGAATTCCGGTCTCCC
DNA 2: TGGTGGCTACGACGGGATT
B7: AUAUAGG (DNA:RNA)
RNA: B1 RNA with G25A, C28U, G29A, A30G
DNA 1: CAATCTGAATTCCGGTCTCCC
DNA 2: TGGTGGCTACGACGGGATT
B8: UUGGUUG (DNA:RNA)
RNA: B1 RNA with G25U, A27G, C28G, G29U, A30U
DNA 1: CAATCTGAATTCCGGTCTCCC
DNA 2: TGGTGGCTACGACGGGATT
B9: CGGAUUU (DNA:RNA)
RNA: GGGAGACCGGAAUUCAGAUUGUCCCGGAUUUUUAAAUCCCGUCGUAGCCACCA
DNA 1: CAATCTGAATTCCGGTCTCCC
DNA 2: TGGTGGCTACGACGGGATT
B10: CUACUAA (DNA:RNA)
RNA: B1 RNA with G25C, G29U, G31A
DNA 1: CAATCTGAATTCCGGTCTCCC
DNA 2: TGGTGGCTACGACGGGATT
B11: ACCAAUA (DNA:RNA)
RNA: B9 RNA with C25A, G26C, G27C, U29A, U31A
DNA 1: CAATCTGAATTCCGGTCTCCC
DNA 2: TGGTGGCTACGACGGGATT
B12: GCUUAUU (DNA:RNA)
RNA: B9 RNA with C25G, G26C, G27U, A28U, U29A
DNA 1: CAATCTGAATTCCGGTCTCCC
DNA 2: TGGTGGCTACGACGGGATT
B13: GUUAGAC (DNA:RNA)
RNA: B1 RNA with A27U, C28A, G31C
DNA 1: CAATCTGAATTCCGGTCTCCC
DNA 2: TGGTGGCTACGACGGGATT
B14: ACUGUUC (DNA:RNA)
RNA: B9 RNA with C25A, G26C, G27U, A28G, U31C
DNA 1: CAATCTGAATTCCGGTCTCCC
DNA 2: TGGTGGCTACGACGGGATT
B15: CGAAGCG (DNA:RNA)
RNA: B9 RNA with G27A, U29G, U30C, U31G
DNA 1: CAATCTGAATTCCGGTCTCCC
DNA 2: TGGTGGCTACGACGGGATT
B16: CACCCGU (DNA:RNA)
RNA: B9 RNA with G26A, G27C, A28C, U29C, U30G
DNA 1: CAATCTGAATTCCGGTCTCCC
DNA 2: TGGTGGCTACGACGGGATT
B17: CCGACGG (DNA:RNA)
RNA: B9 RNA with G26C, U29C, U30G, U31G
DNA 1: CAATCTGAATTCCGGTCTCCC
DNA 2: TGGTGGCTACGACGGGATT
B18: ACUGCAA (DNA:RNA)
RNA: B1 RNA with G25A, U26C, A27U, C28G, G29C, G31A
DNA 1: CAATCTGAATTCCGGTCTCCC
DNA 2: TGGTGGCTACGACGGGATT
B19: AUCGCAG (DNA:RNA)
RNA: B1 RNA with G25A, A27C, C28G, G29C
DNA 1: CAATCTGAATTCCGGTCTCCC
DNA 2: TGGTGGCTACGACGGGATT
B20: AGAAUUU (DNA:RNA)
RNA: B9 RNA with C25A, G27A
DNA 1: CAATCTGAATTCCGGTCTCCC
DNA 2: TGGTGGCTACGACGGGATT
B21: GCUCCGU (DNA:RNA)
RNA: B1 RNA with U26C, A27U, G29C, A30G, G31U
DNA 1: CAATCTGAATTCCGGTCTCCC
DNA 2: TGGTGGCTACGACGGGATT
B22: UGUGGCU (DNA:RNA)
RNA: B9 RNA with C25U, G27U, A28G, U29G, U30C
DNA 1: CAATCTGAATTCCGGTCTCCC
DNA 2: TGGTGGCTACGACGGGATT
B23: CGUGUAC (DNA:RNA)
RNA: B9 RNA with G27U, A28G, U30A, U31C
DNA 1: CAATCTGAATTCCGGTCTCCC
DNA 2: TGGTGGCTACGACGGGATT
B24: AUCUUUU (DNA:RNA)
RNA: B9 RNA with C25A, G26U, G27C, A28U
DNA 1: CAATCTGAATTCCGGTCTCCC
DNA 2: TGGTGGCTACGACGGGATT
B25: UAGGGUA (DNA:RNA)
RNA: B9 RNA with C25U, G26A, A28G, U29G, U31A
DNA 1: CAATCTGAATTCCGGTCTCCC
DNA 2: TGGTGGCTACGACGGGATT
B26: GGAAACU (DNA:RNA)
RNA: B9 RNA with C25G, G27A, U29A, U30C
DNA 1: CAATCTGAATTCCGGTCTCCC
DNA 2: TGGTGGCTACGACGGGATT
B27: UGAUUAC (DNA:RNA)
RNA: B9 RNA with C25U, G27A, A28U, U30A, U31C
DNA 1: CAATCTGAATTCCGGTCTCCC
DNA 2: TGGTGGCTACGACGGGATT
B28: AGCAGAC (DNA:RNA)
RNA: B9 RNA with C25A, G27C, U29G, U30A, U31C
DNA 1: CAATCTGAATTCCGGTCTCCC
DNA 2: TGGTGGCTACGACGGGATT
B29: GGCAGAA (DNA:RNA)
RNA: B1 RNA with U26G, A27C, C28A, G31A
DNA 1: CAATCTGAATTCCGGTCTCCC
DNA 2: TGGTGGCTACGACGGGATT
B30: GAGCCCG (DNA:RNA)
RNA: B1 RNA with U26A, A27G, G29C, A30C
DNA 1: CAATCTGAATTCCGGTCTCCC
DNA 2: TGGTGGCTACGACGGGATT
B31: AAGUGCC (DNA:RNA)
RNA: B9 RNA with C25A, G26A, A28U, U29G, U30C, U31C
DNA 1: CAATCTGAATTCCGGTCTCCC
DNA 2: TGGTGGCTACGACGGGATT

This experiment deals with T1, RBFOX1 RRM RbFoxmut (Fox-RRM*) (Homo sapiens, UniProt Q9NWB1 109-208, R118D;E147R;N151S;E152T).
T1 sequence: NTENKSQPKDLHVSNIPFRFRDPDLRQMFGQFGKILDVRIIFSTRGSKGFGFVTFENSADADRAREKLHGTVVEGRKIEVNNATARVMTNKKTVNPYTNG
The experiment is described as follows: EMSA; HiTS-Eq, 1 nM pool, 10 min; buffer printed only for the single-RNA assays: 10 mM Tris pH 7.5, 150 mM NaCl, 3.4 mM EDTA, 0.001% NP-40, 30 C. Particulars: tags: His6 N-terminal (pET28a); label: 5' 32P. The gist of the method: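 Purified wild-type or mutant RbFox RRM at increasing concentrations was equilibrated with 1 nM of 5′-radiolabelled RNA carrying 7 randomized nucleotides for 10 min in 50 µL. Unbound RNA was separated by 8% native PAGE and sequenced. Relative association constants came from read-count changes of each RNA species compared with the control reaction, normalised to the cognate motif.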
(A gel shift assay detects complexes by their altered migration in electrophoresis.)
As to B1, the binding signal is 0.161 KA relative to UGCAUGU.

With B2, the binding signal was 0.0891 KA relative to UGCAUGU.

As to B3, the binding signal was 0.124 KA relative to UGCAUGU.

Regarding B4, the binding signal was 0.0689 KA relative to UGCAUGU.

As to B5, the binding signal is 0.0999 KA relative to UGCAUGU.

Consider B6, for which the binding signal was 0.155 KA relative to UGCAUGU.

As for B7, the binding signal is 0.115 KA relative to UGCAUGU.

In the case of B8, the binding signal was 0.65 KA relative to UGCAUGU.

Turning to B9, the binding signal was 0.0743 KA relative to UGCAUGU.

B10: the binding signal was 0.109 KA relative to UGCAUGU.

With B11, the binding signal was 0.0825 KA relative to UGCAUGU.

Take B12: the binding signal was 0.108 KA relative to UGCAUGU.

Take B13: the binding signal is 0.0786 KA relative to UGCAUGU.

With B14, the binding signal is 0.0822 KA relative to UGCAUGU.

In the case of B15, the binding signal was 0.108 KA relative to UGCAUGU.

In the case of B16, the binding signal is 0.1 KA relative to UGCAUGU.

As to B17, the binding signal is 0.0705 KA relative to UGCAUGU.

As for B18, the binding signal is 0.0722 KA relative to UGCAUGU.

Take B19: the binding signal is 0.124 KA relative to UGCAUGU.

Turning to B20, the binding signal was 0.0901 KA relative to UGCAUGU.

In the case of B21, the binding signal is 0.0921 KA relative to UGCAUGU.

Take B22: the binding signal was 0.129 KA relative to UGCAUGU.

In the case of B23, the binding signal is 0.113 KA relative to UGCAUGU.

In the case of B24, the binding signal was 0.0898 KA relative to UGCAUGU.

As for B25, the binding signal was 0.138 KA relative to UGCAUGU.

For the molecule B26, the binding signal is 0.0532 KA relative to UGCAUGU.

For B27, the binding signal was 0.0902 KA relative to UGCAUGU.

B28: the binding signal is 0.0855 KA relative to UGCAUGU.

For B29, the binding signal is 0.0784 KA relative to UGCAUGU.

In the case of B30, the binding signal is 0.0755 KA relative to UGCAUGU.

Consider B31, for which the binding signal was 0.246 KA relative to UGCAUGU.
